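How tested: cells in 96-well plates exposed to compound for 48 hours at five concentrations. TGI denotes the concentration required for complete inhibition of growth.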 A number of entries come with more than one value. This is not the full list of results. There may be further records. A record mostly stands for its own series of concentrations, which the source does not state; some values may only mark the edge of a range.
Test system: MDA-MB-468 breast
Experiment: growth of human tumour cells (NCI), 48 h

## CC(=O)O[C@@]12CO[C@@H]1C[C@H](O)[C@@]1(C)C(=O)[C@H](O)C3=C(C)[C@@H](OC(=O)[C@H](O)[C@@H](NC(=O)OC(C)(C)C)c4ccccc4)C[C@@](O)([C@@H](OC(=O)c4ccccc4)C12)C3(C)C (stereo partly specified)
  TGI: 11.3 µM and 46 nM

From PubChem BioAssay (NCI)
